Among all 120,000 compounds or so, about 5,300 (4.4%) were called active. Inconclusive results, whose numbers are uncertain, are shown with a selection of clear calls. Calls follow the shape of the dose curve; as a rule, active = well fitted inhibition curve with a large enough effect; inconclusive = small, poorly fitted or top-dose-only effect; inactive = no such curve, though single readings can be large or run the other way. Where the call is inconclusive, the potency comes from a doubtful curve fit.
Assay: qHTS Primary assay for Inhibitors of Plasmodium falciparum Dd2 growth in vitro; also: nearly all actives have a fitted effect of over 65% in size;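 as to activity, negative = inhibition: plate controls were DMSO vehicle for no effect and reference drug for full effect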
Details: P. falciparum Dd2 growth, SYBR Green, 72 h; activity, negative = inhibition: at 28.9 µM (top of the series) unless noted; series mostly up to 28.9 µM
In short: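 Infected erythrocytes (Dd2, 0.3% parasitemia, 2.5% hematocrit final) are added to compound in RPMI-1640/Albumax II medium, grown 72 h at 37C in low oxygen, then lysed with saponin/Triton-X containing SYBR Green and read by fluorescence.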
Potency is read from the fitted curve at half-maximal effect; tags tell the direction and shape of the fitted curve.

Structure (SMILES) | Potency | activity, negative = inhibition | outcome
CN1CCN(CCNC(=O)c2cnn(-c3ccc(Cl)cc3)c2C2CCN(C(=O)OC(C)(C)C)CC2)CC1 | inconclusive: 10 µM [inhibitor, single point] | – | –
CO[C@H]1[C@H](NC(=O)Cc2ccc(O)cc2)c2ccccc2C12CCNCC2 | – | inactive: -18% | –
O=C1CC(c2ccccc2)N(C(=O)CNC(=O)NCc2ccc(F)cc2)CCCCCCN1 (centres undefined) | inconclusive: 5.62 µM [inhibitor, partial curve] | – | –
COc1ccc2[nH]c(C(=O)N3CCC4(CC3)CC(O)CCO4)cc2c1 (centres undefined) | active: 11.2 µM | – | –
CC(C)CCN1CCC(O)(c2csc(CN3CCN(C)CC3)n2)CC1 | inconclusive: 22.4 µM [inhibitor, single point] | – | –
O=C(CCn1ccn2nc3c(c2c1=O)CCCC3)Nc1ccc(F)c(Cl)c1 | inconclusive: 17.8 µM [inhibitor, single point] | – | –
O=C(Cc1cccnc1)N1CCC(N2C(=O)C3(CCCCC3)C2c2ccccc2)CC1 (centres undefined) | inconclusive: 17.8 µM [inhibitor, single point] | – | –
O=C1CO[C@H]2CN(Cc3ccc4c(c3)OCO4)C[C@H]2N1Cc1ccc(F)cc1 | active: 10 µM | – | –
CCOC(=O)c1ccc(NC(=O)CC(=O)Nc2ccc3nc4n(c(=O)c3c2)CCCCC4)cc1 | inconclusive: 11.2 µM [inhibitor, partial curve] | – | –
Cc1nn2c(C)c(C(=O)NCCc3ccccc3)cnc2c1-c1ccccc1 | – | inactive: 20.1% | –
CCCNC(=O)Cc1csc2nc(C)c(-c3cc(C)n(-c4ccccc4CC)n3)c(=O)n12 | inconclusive: 17.8 µM [inhibitor, partial curve, poor fit] | – | –
Cc1ccc(NC(=O)N2CCCC(Cn3c(C4CC4)nc4cccnc43)C2)cc1C (centres undefined) | inconclusive: 3.98 µM [inhibitor, partial curve, poor fit] | – | –
CCOc1ccc(NC(=O)Cn2nnc(-c3nc(-c4ccncc4)no3)c2N)cc1 | – | inactive: -5.44% | –
Cc1nc2ncnn2c(C)c1CCC(=O)NCC1CCOc2ccccc2C1 (centres undefined) | – | inactive: 6.3% | –
COc1ccc2[nH]c(C[C@@H]3C[C@@H](C(C)C)[C@H](CNC(=O)Cn4cnnn4)C=C3C)nc2n1 | – | – | inactive
COc1ccc(-c2cc3c(nc2-c2ccccc2)nc(C(=O)NCCN(C)C)n3C)cc1OC | active: 3.98 µM | – | –
Cn1cc(CN2C[C@@H]3C[C@H](C2)c2ccc(NC(=O)c4cccs4)c(=O)n2C3)c2ccccc21 | active: 7.94 µM | – | –
Cc1cccc(-c2nc3nc(C)cc(NC(C)c4ccccc4)n3n2)c1 (centres undefined) | inconclusive: 7.94 µM [inhibitor, partial curve, poor fit] | – | –
CSc1ccc(CCNC(=O)CCCn2c(=O)c3cccn3c3ccccc32)cc1 | inconclusive: 10 µM [inhibitor, single point] | – | –
Cc1ccc(S(=O)(=O)Cc2nc(-c3ccc(C(=O)NCCCOC(C)C)cc3)oc2C)cc1 | – | – | inactive
O=C1NC2(CCN([S+](=O)([O-])c3cccc(C(F)(F)F)c3)C2)COc2ccccc21 (centres undefined) | – | inactive: 16.9% | –
FC(F)(F)c1cccc(C2=NOC3(CCN(Cc4ccsc4)CC3)C2)c1 | – | inactive: -11.6% | –
O=C(NCC1CCN(Cc2ccccc2F)CC1)Nc1ccc(F)c(Cl)c1 | inconclusive: 17.8 µM [inhibitor, single point] | – | –

Structure (SMILES) | Potency | activity, negative = inhibition | outcome
Cc1cn2nnc(C(=O)NCc3ccc4c(c3)OCO4)c2c(=O)[nH]1 | active: 6.31 µM | – | –
Cc1cccc(NC(=O)N2CCC(CCNC(=O)c3cc(F)ccc3F)CC2)c1 | – | inactive: -12.2% | –
O=C1N2CCCC2CN1C1CCN(Cc2ccc(F)cc2)CC1 (centres undefined) | – | inactive: -1.64% [at 44.1 µM] | –
COCCN1C(=O)CC[C@]2(C(=O)NCc3cccc(C)c3)CCCC[C@@H]12 | – | inactive: -16.4% | –
CN1CC(=O)N(c2ccccc2)Cc2c(NC3CCC3)ncnc21 | – | inactive: -3.21% [at 44.1 µM] | –
CCc1ccc(C2c3c(-c4ccccc4O)n[nH]c3C(=O)N2Cc2cccnc2)cc1 (centres undefined) | inconclusive: 17.8 µM [inhibitor, single point] | – | –
O=c1cc(-c2ccncc2)oc2c(-c3ccccc3O)nccc12 | active: 1.78 µM | – | –
O=C(CCNS(=O)(=O)c1ccc2c(c1)CCN2C(=O)C1CC1)N1CCN(c2cccc(Cl)c2)CC1 | inconclusive: 20 µM [inhibitor, single point] | – | –
CCOc1ccc(/C=C/C(=O)Nc2ccc3nc(N(CC)CC)cc(C)c3c2)cc1OC | active: 1 µM | – | –
COCCOc1ncccc1-c1noc([C@@H]2CCCN2Cc2ccc(CO)o2)n1 | inconclusive: 2.51 µM [inhibitor, full curve, poor fit] | – | –
Cc1cccc(CNC(=O)c2cc(NC(=O)C(C)C)cc3nc(C)ccc23)c1 | inconclusive: 17.8 µM [inhibitor, single point] | – | –
Cc1cccc(N(C)S(=O)(=O)c2cc(-c3cnc(C4CC4)o3)ccc2C)c1 | inconclusive: 20 µM [inhibitor, single point] | – | –
COc1cccc(-c2cc(-c3cccnc3)c3cncn3c2)c1OC | inconclusive: 2.82 µM [inhibitor, single point] | – | –
CN1c2cc(C(=O)NCc3ccc(F)c(Cl)c3)ccc2C(=O)N2CCCCC21 (centres undefined) | – | – | inactive
COc1ccc(Nc2cc3c(cn2)NCCN(Cc2ccccc2)C3)cc1 | inconclusive: 10 µM [inhibitor, partial curve, poor fit] | – | –
c1ccc(CN2CCNc3cc(NCc4cccnc4)ncc3C2)cc1 | – | – | inactive [at 44.1 µM]
COCCN1C(=O)[C@H]2CN(Cc3cc(Br)ccc3F)C[C@H]2C1=O | – | inactive: 17.4% | –
O=C1Nc2ccccc2CC12CCCN(Cc1ccc(F)cc1)C2 (centres undefined) | inconclusive: 10 µM [inhibitor, partial curve] | – | –
CN(Cc1nccs1)C(=O)C(c1cccc(F)c1)N(C)C (centres undefined) | inconclusive: 7.08 µM [inhibitor, partial curve] | – | –
C[S+](=O)([O-])c1ccc(-c2nc(C(=O)NCc3ccc4c(c3)OCO4)n3ccccc23)cc1 | inconclusive: 6.31 µM [inhibitor, partial curve, poor fit] | – | –
O=C(O)CCC(=O)N1Cc2ccccc2CC2(CCN(Cc3ccc(O)cc3)C2)C1 (centres undefined) | inconclusive: 5.62 µM [inhibitor, partial curve, poor fit] | – | –
CCN(Cc1ccccc1)C(=O)CC1CCCN(c2cnn(CC3CC3)c(=O)c2)C1 (centres undefined) | inconclusive: 17.8 µM [inhibitor, single point] | – | –
COc1cccc(N2C(=O)NC(=NC3CCCC3)C23CCN(Cc2ccsc2)C3)c1 (centres undefined) | inconclusive: 10 µM [inhibitor, single point] | – | –

Structure (SMILES) | Potency | activity, negative = inhibition | outcome
CC(C)CCO[C@H]1COCCN(Cc2ccccn2)C1 | inconclusive: 31.6 µM [inhibitor, single point] | – | –
COCCc1noc(-c2ccccc2OC2CN(C(=O)CCn3nc(C)cc3C)C2)n1 | inconclusive: 8.91 µM [inhibitor, single point] | – | –
CCOc1ccc2c(n1)CCN(C(=O)c1nccn1C)C2 | inconclusive: 17.8 µM [inhibitor, single point] | – | –
COc1ccc(F)c(CN2CCC(CCC(=O)N3CCN(c4ccccc4)CC3)CC2)c1 | – | inactive: -29.8% | –
Cc1cccc(N2CCN(C(=O)Cn3c(-c4cccs4)cc4ccccc43)CC2)c1C | inconclusive: 10 µM [inhibitor, single point] | – | –
Cc1ccc2c(CC(=O)Nc3ccc(S(=O)(=O)N4CCCCC4)cc3)coc2c1C | inconclusive: 11.2 µM [inhibitor, single point] | – | –
CC(C)CCNC(=O)C1CCN(C(=O)c2cc3sccc3n2Cc2ccc(Cl)cc2)CC1 | active: 12.6 µM | – | –
O=C(Nc1cccs1)O[C@H]1COCCN(c2nc3ccccc3o2)C1 | inconclusive: 6.31 µM [inhibitor, full curve] | – | –
COc1ccc(C(=O)N2CCC3(CC2)CC(c2nc(C)no2)N(C)C3)cc1F (centres undefined) | inconclusive: 3.98 µM [inhibitor, single point] | – | –
CC1(c2ccccc2)CCCN(C(=O)c2cnc(-c3cccnc3)nc2)C1 (centres undefined) | inconclusive: 10 µM [inhibitor, partial curve] | – | –
CCN1CCN(c2ncc3c(n2)CCN(Cc2ccccc2C)C3)CC1 | inconclusive: 11.2 µM [inhibitor, single point] | – | –
CCc1ccccc1NC(=O)CC1CCN(c2ccnc(OC)n2)CC1 | – | – | inactive
Cc1cccc2c1nc1n2[C@@H](CNC2CCOCC2)COC1 | – | – | inactive [at 44.1 µM]
CC(C)(C)OC(=O)N1CCC(c2c(C(=O)N3CCN(Cc4ccccc4)CC3)cnn2-c2cccc(Cl)c2)CC1 | active: 3.16 µM | – | –
CCSc1nc2ccccc2c(OCc2ccc(Cl)cc2)c1C(=O)OC | inconclusive: 12.6 µM [inhibitor, single point] | – | –
CCc1nn(-c2ccc(OC)cc2)c(Oc2ccccc2F)c1CCC(=O)N(CC)CC | – | – | inactive
Cc1cccc(NC(=O)CSC2=Nc3ccccc3C3=NC(CCC(=O)NCc4ccco4)C(=O)N23)c1 (centres undefined) | inconclusive: 17.8 µM [inhibitor, single point] | – | –
CCCNC(=O)[C@H]1CCC[C@H]1NC(=O)c1ccc(OC)cc1 | – | inactive: -14.3% | –
COC(=O)c1sccc1S(=O)(=O)N(CC(=O)Nc1cccc(C)c1C)c1ccc(C)c(C)c1 | inconclusive: 17.8 µM [inhibitor, single point] | – | –
CC(C)CCC(=O)NC1CCN(c2cn[nH]c(=O)c2)CC1 | – | inactive: 1.5% | –
CC(=O)N1CCC(N2CC3(C2)C(=O)N(Cc2ccccc2Cl)C(=O)[C@@H]2C[C@@H](O)CN23)CC1 | active: 7.08 µM | – | –
CCc1c(C)sc2c1CCN(Cc1ccc(C#N)cc1)C2c1ccccc1 (centres undefined) | inconclusive: 17.8 µM [inhibitor, single point] | – | –
CC(=O)N1CCC(NC[C@@H]2C=C(C)[C@H](Cc3nc4ccc(Cl)cc4[nH]3)C[C@H]2C(C)C)CC1 | inconclusive: 3.16 µM [inhibitor, partial curve, poor fit] | – | –

Source: PubChem BioAssay AID1347417 (National Center for Advancing Translational Sciences (NCATS), 2020)
